Measurements taken from PubChem BioAssay AID463173 (ICCB-Longwood Screening Facility, Harvard Medical School, 2010).
Among all 52,000 compounds or so, about 1,700 (3.3%) were called active. No stated cut-off is given here; in the data, active means survival mostly below about 52% (no sharp cut-off); inactive means mostly above about 56%. Some of the results follow.

System: Wild type
Assay: growth inhibition of S. aureus wild type versus tarO mutant, primary screen, teichoic acid synthesis inhibitors, RN4220, OD600 (AID 463173)
Settings: S. aureus RN4220 wild type/DeltatarO growth, OD600, 18 h, active compounds read low, screened at 18.75 µg/mL (by protocol)

| SMILES | survival |
| --- | --- |
| CCCCSCCCNC(=O)C1CCC(CNS(=O)(=O)c2ccccc2)CC1 (stereo unspecified) | inactive: 80% |
| CCOc1ccc(CCNC(=O)c2ccc3nc(CC)c(CC)nc3c2)cc1 | inactive: 77% |
| O=C(Nc1ccc(F)cc1F)c1ccc2c(=O)n3c(nc2c1)CCCCC3 | inactive: 75% |
| COc1ccccc1-c1cc(C(=O)Nc2cc(Cl)ccc2O)no1 | inactive: 84% |
| CCOc1ccc(CNC(=O)c2cnc3sc(N4CCC(C)CC4)nn3c2=O)cc1OC | inactive: 91% |
| CCOc1ccc(OCC(=O)Nc2c(C(=O)Nc3ccc(C)cc3)oc3ccccc23)cc1 | inactive: 93% |
| Cc1c(C(=O)N(C)c2cccc(C(F)(F)F)c2)sc2nc3n(c(=O)c12)CCCCC3 | inactive: 98% |
| Fc1ccc(CNc2nc3ccc(Cl)cc3n3nnnc23)cc1 | inactive: 99% |
| COc1cccc(-n2c(=O)c3sc4ccccc4c3n(CC(=O)Nc3cccc(Cl)c3)c2=O)c1 | inactive: 78% |
| COC(=O)C1=C(C)NC2=C(C(=O)CC(c3ccco3)C2)C1c1cccc(OC)c1 (stereo unspecified) | inactive: 98% |
| O=S(=O)(Nc1cccc(-c2ccc(N3CCCCC3)nn2)c1)c1ccc(Cl)s1 | inactive: 82% |
| CCCC(=O)N(Cc1nc2ccccc2c(=O)[nH]1)C1CCCC1 | inactive: 85% |
| CCSc1ncc(Cl)c(C(=O)N2CCN(c3ccc(OC)cc3)CC2)n1 | inactive: 89% |
| C=Cc1ccc(Cn2c(=O)n(-c3cccc(C)c3)c(=O)c3c2c2cc(C)ccc2n3C)cc1 | inactive: 136% |
| O=S(=O)(c1cccc(Cl)c1)c1nnn2c1nc(NC1CCCCCC1)c1sccc12 | inactive: 120% |
| CCN(CC)CCCNC(=O)c1ccc2nc(CCc3ccccc3)oc2c1 | inactive: 83% |
| O=C(Nc1ccc2c(c1)N(C1CCCC1)C(=O)c1ccccc1S2)c1ccc(F)cc1 | inactive: 87% |
| CCN(CC)c1ccc(NC(=O)C2COc3ccc(OC)cc3C2)c(C)c1 (stereo unspecified) | inactive: 131% |
| Cc1ccc(S(=O)(=O)c2c(C)nn(-c3ccccc3)c2OC(=O)c2ccccc2F)cc1 | inactive: 51% |
| Cc1cc(C(=O)Nc2cccc(OC(C)C)c2)c(C)o1 | inactive: 110% |
| CCN(c1ccc(Cl)cc1)S(=O)(=O)c1nnc(NC(=O)C(C)C)s1 | inactive: 88% |
| COc1ccc(Nc2nc(NCCO)c3ccccc3n2)c(OC)c1 | inactive: 111% |
| CCC(=O)Oc1ccc(-c2nc3ccccc3c(=O)o2)cc1 | inactive: 73% |

| SMILES | survival |
| --- | --- |
| CCOC(=O)c1ccccc1NC(=O)Cn1c(=O)n(Cc2ccccc2)c(=O)c2c(C)c(C)sc21 | inactive: 90% |
| CC(C)(C)OC(=O)N1CCC(c2c(C(=O)NCc3ccco3)cnn2-c2ccc(F)cc2)CC1 | inactive: 85% |
| Cc1ccc(-n2ncc(C(=O)N3CCN(Cc4ccccc4)CC3)c2C2CCN(C(=O)OC(C)(C)C)CC2)c(C)c1 | inactive: 47% |
| Cc1ccc(C)c(S(=O)(=O)c2nnn3c2nc(NCc2ccc4c(c2)OCO4)c2sccc23)c1 | inactive: 78% |
| CN(C)c1ccc(NC(=O)Cn2c(SCc3ccccc3F)nc3cccnc32)cc1 | inactive: 135% |
| CN(C)c1ccc(C(CNS(=O)(=O)c2ccc(Br)cc2)N2CCOCC2)cc1 (stereo unspecified) | inactive: 88% |
| O=c1c2sc3ccccc3c2n(Cc2ccccc2F)c(=O)n1CCc1ccccc1 | inactive: 86% |
| COc1ccc(-c2nnc(SCC(=O)Nc3ccc(F)cc3)s2)cc1 | inactive: 84% |
| CCc1ccc(-c2ccc(C(=O)Oc3ccc(Br)cc3)cc2)nc1 | inactive: 76% |
| CCOC(=O)c1cnc(SCC(=O)OC)nc1N | inactive: 95% |
| O=C(c1ccc2c(Cl)c3c(nc2c1)CCCC3)N1CCN(c2cccc(Cl)c2)CC1 | inactive: 62% |
| Cc1cccc(N2C(=O)CCSC23C(=O)N(Cc2ccc(F)cc2)c2ccccc23)c1 (stereo unspecified) | inactive: 125% |
| Cc1ccc(-c2c(C(=O)NCCc3ccc(Cl)cc3)oc(=O)c3ccccc23)cc1 | inactive: 57% |
| Cc1ccc(N2CNC(=O)c3c(C)cc(C)nc32)cc1 | inactive: 113% |
| O=C(CSc1ncn(-c2ccccc2)n1)NC1CCCCC1 | inactive: 102% |
| Cc1c(C)n(C)c2ccc(C(=O)NCCCN3CCCCC3)cc12 | inactive: 97% |
| COc1ccc(NC(=O)C2=C(C)Nc3nc(SCc4ccccc4)nn3C2c2cc(OC)ccc2OC)cc1 (stereo unspecified) | inactive: 70% |
| O=C1C=CC(=O)N1c1ccc(N2CCCCC2)cc1 | inactive: 88% |
| Cc1ccc(Cn2ccc(NC(=O)c3cc(-c4ccc(Cl)c(Cl)c4)on3)n2)cc1 | inactive: 74% |
| COCCc1nn2c(=O)cc(COC(=O)c3ccc(C(C)(C)C)cc3)nc2s1 | inactive: 124% |
| O=[N+]1C2=C(CCCC2)N([O-])C12CCCC2 | inactive: 104% |
| CCN(c1ccccc1)S(=O)(=O)c1ccc(Cl)cc1 | inactive: 121% |
| Cc1c(-c2cccc(NC(=O)C(C)(C)C)c2)nc2ncccn12 | inactive: 71% |

| SMILES | survival |
| --- | --- |
| Cc1ccc(-c2nc(SCc3ccc(Br)cc3)n3[nH]c(=O)cc3n2)cc1 | active: 10% |
| CN1CC(=O)N(CC(=O)Nc2ccc(Cl)c(C(F)(F)F)c2)c2ccccc2C1=O | inactive: 100% |
| CCN(CC)S(=O)(=O)c1ccc(C(=O)N=c2sc3cccc(OC)c3n2C)cc1 | inactive: 90% |
| COc1ccc(CNc2ncnc3c2c(-c2ccccc2)cn3-c2ccccc2)cc1 | inactive: 84% |
| CCc1c(SCC(=O)O)nc2ccccc2c1C | inactive: 111% |
| Cc1ccc(S(=O)(=O)c2nc(-c3ccc(Cl)cc3)oc2N2CCCCCC2)cc1 | inactive: 30% |
| CCCn1c(SCC(=O)Nc2ccccc2C(F)(F)F)nnc1-c1ccoc1C | inactive: 101% |
| Cc1ccc2nc(N3CCN(c4cccc(C)c4C)CC3)c3nnnn3c2c1 | inactive: 82% |
| N#Cc1c(N)oc(-c2ccc3c(c2)OCO3)c1-c1ccc2c(c1)OCO2 | inactive: 66% |
| COc1ccccc1CNC(=O)c1cccc(Nc2nc3ccccc3n3nnnc23)c1 | inactive: 85% |
| COc1ccc(Cn2nnnc2C(c2ccccc2F)N(Cc2ccco2)CC2CCCO2)cc1 (stereo unspecified) | inactive: 130% |
| CCC1CN(C(=O)N2CCC(C(=O)NCc3cccs3)CC2)c2cc(C)ccc2O1 (stereo unspecified) | inactive: 86% |
| Cc1ccccc1Nc1c2c(nc3nncn13)CCC2 | inactive: 82% |
| O=C(O)/C=C\C(=O)Nc1ccc2cn[nH]c2c1 | inactive: 103% |
| O=C(COc1ccc(F)cc1)Nc1ccc2nc(SCc3ccccc3)sc2c1 | inactive: 84% |
| CCc1cccc(NC(=O)CSc2ncc3c(n2)-c2ccccc2N(Cc2ccccc2C)S3(=O)=O)c1 | active: 0% |
| O=C(CC1(O)C(=O)N(CCc2ccccc2)c2ccc(Br)cc21)c1ccccc1O (stereo unspecified) | active: 6% |
| CCOc1ccc(-c2cc(C(=O)NCc3ccccc3)c3c(-c4ccc(CC)cc4)[nH]nc3n2)cc1 | inactive: 60% |
| CC(C)(C)C(=O)Nc1c(C(=O)N2CCN(c3ccc(F)cc3)CC2)oc2ccccc12 | inactive: 73% |
| COc1ccc(NC(=O)Cc2csc(C)n2)cc1 | inactive: 83% |
| CC(=O)c1ccc(NC(=O)NCCc2c[nH]c3ccccc23)cc1 | inactive: 101% |
| Cc1cccc(NC(=O)CSc2nnc(CNC(=O)c3c(F)cccc3Cl)o2)c1C | inactive: 79% |
| CC(C)c1nn2c(=O)cc(COC(=O)c3ccc(NC(=O)CCc4ccccc4)cc3)nc2s1 | inactive: 71% |

| SMILES | survival |
| --- | --- |
| CCCCNS(=O)(=O)c1ccc2c(c1)C(=C(C#N)C#N)c1cc(S(=O)(=O)NCCCC)ccc1-2 | inactive: 99% |
| CCCCCn1c(=O)[nH]c2cc(C(=O)Nc3ccc(F)cc3)ccc2c1=O | inactive: 114% |
| CCOC(=O)C1CCN(S(=O)(=O)c2cc(-c3cc(C)no3)ccc2C)CC1 | inactive: 70% |
| Cc1cccc(-c2nc3scc(CCNC(=O)c4ccccc4Cl)n3n2)c1 | inactive: 102% |
| CC1CCN(CCNC(=O)c2ccc(Cn3c(SCc4ccccc4)nc4cccnc43)cc2)CC1 | inactive: 101% |
| CCN(CC)C(=O)c1c(NC(=O)c2cccc(C)c2)sc2c1CCC(C)C2 (stereo unspecified) | active: 2% |
| CCN1CCC(N(Cc2ccc3c(c2)OCO3)C(=O)Nc2cc(F)ccc2F)CC1 | inactive: 55% |
| Cc1ccc(NC(=O)c2sc3nc(-c4cccs4)ccc3c2N)cc1F | inactive: 92% |
| O=C(NC12CC3CC(CC(C3)C1)C2)c1cncc(O)c1 | inactive: 102% |
| COc1ccc(-c2cc(C(F)(F)F)nc(SCCC(=O)Nc3ccc(OC)c(OC)c3)n2)cc1 | inactive: 51% |
| CCCCc1nnc(SCc2cc(=O)c3cc(F)ccc3[nH]2)n1C | inactive: 68% |
| CC(C)(C)NC(=O)C1CCN(c2nc3ccccc3nc2C(F)(F)F)CC1 | inactive: 45% |
| COc1ccc(C(=O)NCCn2cc(SCc3c(F)cccc3Cl)c3ccccc32)cc1 | inactive: 59% |
| Cc1ccc(-n2ncc3c(NC4CCCCCC4)ncnc32)cc1 | inactive: 53% |
| COc1ccc(CNC(=O)CN2C(=O)CC(c3ccc(C)c(C)c3)=Nc3ccccc32)cc1 | inactive: 73% |
| O=C(c1cnc(N2CCOCC2)c2ccccc12)N1CCN(c2ccccc2)CC1 | inactive: 66% |
| COc1cc(C)c(N)cc1C(C)C | inactive: 100% |
| Cc1cc(C)c(-c2n[nH]c3c2C(c2ccccc2F)N(Cc2ccco2)C3=O)c(O)c1 (stereo unspecified) | active: 8% |
| O=c1[nH]c2cc(Br)ccc2n2cccc12 | inactive: 55% |
| COc1cc(NC(=O)N2CCc3c(sc4c3CCCC4)C2c2ccccc2)cc(OC)c1OC (stereo unspecified) | inactive: 101% |
| CCN(CC)CCSc1c(C(C)C)cnc2c1c(=O)n(C)c(=O)n2C | inactive: 64% |
| CCOc1ccc(CNC(=O)CSc2nnc(C)c3c(C)n(-c4ccc(Cl)cc4)nc23)cc1 | inactive: 90% |
